Sequences with one replicate were seen in a single cluster, so their values are uncertain.
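Note: ATP exposure 15 min at 22 °C before imaging.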

The series deals with ATP. The series is described as follows: switch fluorescence ratio, 500 uM ATP over buffer (Cy3 cluster intensity, sum of 5 cycles each) (fold (ratio)); higher = stronger signal-on switching upon ATP binding; sequences stand for … in TCGTCGGCAGCGTCAGATGTGTATAAGAGACAGTTTTTTTTTTTTTTTTTTTTTTTTT…TC. The conditions noted are these: aptamer strand: ATP DNA aptamer (quencher-CACCTGGGGGAGTATTGCGGAGGAAGG + anchor), 100 nM annealed; ATP concentration: 500 uM; one replicate. The method, boiled down: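 Cy3-labelled switching-strand clusters on a modified Illumina MiSeq flow-cell were annealed to 100 nM quencher-labelled ATP aptamer and imaged first in selection buffer, then after 15 min with 500 uM ATP at 22 °C. NaOH stripping and re-annealing separated each of five buffer/ATP cycles, and clusters outside 100-1000 RFU were excluded. The fluorescence ratio sums target-cycle Cy3 intensity over buffer-cycle Cy3 intensity per cluster and averages it per switch-domain sequence.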
Take TGTGTATATC: the switch fluorescence ratio turned out to be 1.01.

Take CTTATATTCG: the switch fluorescence ratio is 0.943.

Consider GGGAGGTTGA, for which the switch fluorescence ratio was 1.01.

With GCTGAACCGA, the switch fluorescence ratio was found to be 1.05.

Turning to TACATAATGG, the switch fluorescence ratio came out at 1.02.

Consider GCATATAGGC, for which the switch fluorescence ratio came out at 0.976.

For the sequence GACGACCAGC, the switch fluorescence ratio stood at 1.48.

For CGAGTGGGAG, the switch fluorescence ratio is 0.949.

With TAGGTCCGGG, the switch fluorescence ratio is 1.

Turning to GATTTGGTCC, the switch fluorescence ratio is 1.03.

For AAATGTGGCT, the switch fluorescence ratio worked out at 0.978.

With TTGATAGCAC, the switch fluorescence ratio turned out to be 1.14.

In the case of TCTACATGTT, the switch fluorescence ratio was 0.966.

In the case of CTGGACACAA, the switch fluorescence ratio amounted to 1.33.

Take ATGTAGGACA: the switch fluorescence ratio was determined as 1.02.

As for AGAGAAAAAT, the switch fluorescence ratio is 0.986.

Consider GGTCGGTCTC, for which the switch fluorescence ratio came to 0.997.

In the case of GAAGTCAT, the switch fluorescence ratio came to 0.993.

On to TTTTGTT, for which the switch fluorescence ratio stood at 0.986.

Consider GCGTGCTGCC, for which the switch fluorescence ratio was found to be 1.01.

With TGATACACGA, the switch fluorescence ratio is 1.03.

As to AAACCTTGAG, the switch fluorescence ratio came to 1.09.

On to AGACGCCATA, for which the switch fluorescence ratio came to 1.08.

As to TCTTCAGGTT, the switch fluorescence ratio is 1.

As for CGTATTTTAT, the switch fluorescence ratio came to 0.994.

As to AGGTATGGTG, the switch fluorescence ratio amounted to 1.06.

As for TTGACAACCA, the switch fluorescence ratio is 1.12.

On to CATCCTGCAG, for which the switch fluorescence ratio was 3.15.

As to ATACACGAGG, the switch fluorescence ratio stood at 1.05.

For the sequence TCGTACCGT, the switch fluorescence ratio was 1.02.

On to GGCGTTGTGG, for which the switch fluorescence ratio is 1.03.

AAAACGTTG: the switch fluorescence ratio was 1.04.

GCTTCTCGCG: the switch fluorescence ratio is 0.992.

Regarding CGTGACAGTG, the switch fluorescence ratio came to 1.02.

With ACGGGAAGAG, the switch fluorescence ratio came to 1.

For the sequence GCATTATTGT, the switch fluorescence ratio was 1.02.

For CGGTGACTAC, the switch fluorescence ratio was 1.

With GCACCAGCAT, the switch fluorescence ratio came out at 1.03.

AATTCCTTAT: the switch fluorescence ratio worked out at 1.14.

With GGGGGCGACA, the switch fluorescence ratio worked out at 1.03.

As to ATACTGGCGA, the switch fluorescence ratio is 0.998.

As to AAGTTGCCCC, the switch fluorescence ratio amounted to 1.

Consider ATTCGACTAA, for which the switch fluorescence ratio was 1.03.

GACACGAAGG: the switch fluorescence ratio is 1.01.

As to GCAACCGCTT, the switch fluorescence ratio is 1.09.

Turning to TGGGCGGGT, the switch fluorescence ratio amounted to 1.

As for TTAAGTAGCC, the switch fluorescence ratio is 1.05.

For the sequence GGGTGAGGG, the switch fluorescence ratio was 1.03.

With TATGGGACAA, the switch fluorescence ratio stood at 1.06.

Turning to ACTAATGCGT, the switch fluorescence ratio turned out to be 1.01.

With GCTGATCATG, the switch fluorescence ratio is 1.01.

Consider TCGGTTAAGG, for which the switch fluorescence ratio stood at 0.959.

With TGTAGGCCTC, the switch fluorescence ratio was found to be 0.954.

Consider TACATCCTTT, for which the switch fluorescence ratio is 1.09.

Regarding TAATGTGAGA, the switch fluorescence ratio was determined as 1.03.

Take ACGGGATCGA: the switch fluorescence ratio worked out at 1.01.

Turning to GAGGGTGGTG, the switch fluorescence ratio came out at 0.971.

As to GACACTAGGC, the switch fluorescence ratio amounted to 1.

With ATTTTGACTA, the switch fluorescence ratio turned out to be 1.01.

On to TACTTTACTC, for which the switch fluorescence ratio came out at 1.39.

For the sequence ATTTTCTATT, the switch fluorescence ratio stood at 0.956.

As to ATTTTAGATT, the switch fluorescence ratio is 1.02.

CGAAACTCGG: the switch fluorescence ratio was 1.01.

Regarding TAATTTGAA, the switch fluorescence ratio is 0.984.

Regarding GCTAGCTGAG, the switch fluorescence ratio came out at 1.02.

With CTATTTATGG, the switch fluorescence ratio was 0.972.

Take AGACCCCAGG: the switch fluorescence ratio came to 1.07.

Consider AACGGCCCTC, for which the switch fluorescence ratio is 1.07.

With TATCTGATTT, the switch fluorescence ratio came out at 1.02.

For the sequence CTCGACCTTC, the switch fluorescence ratio worked out at 1.79.

Regarding AACTGACAAG, the switch fluorescence ratio is 0.963.

With GGTGGAGTTC, the switch fluorescence ratio turned out to be 0.985.

For the sequence GCCATACCGC, the switch fluorescence ratio was determined as 1.11.

Turning to GCCGCGAGGA, the switch fluorescence ratio worked out at 1.16.

As for CTACTCAAGC, the switch fluorescence ratio stood at 2.09.

On to GTGGGGGAG, for which the switch fluorescence ratio turned out to be 1.

As for TACGCCCAGA, the switch fluorescence ratio stood at 1.03.

As for CCTCTTCGCC, the switch fluorescence ratio was found to be 2.23.

Turning to CTGTTTCAAT, the switch fluorescence ratio stood at 0.984.

For the sequence GTAAGGATAG, the switch fluorescence ratio came out at 0.987.

Take GGTGTAATTT: the switch fluorescence ratio was found to be 0.95.

For ATGACGACCT, the switch fluorescence ratio is 1.04.

TTAGGGGTTC: the switch fluorescence ratio amounted to 0.985.

On to GGCGGCGTGA, for which the switch fluorescence ratio came to 0.984.

CTATTATAGG: the switch fluorescence ratio was 0.995.

On to ATCTTTCTCC, for which the switch fluorescence ratio is 1.07.

Turning to TTAATACTCG, the switch fluorescence ratio was found to be 2.44.

Take GAACCCTCCT: the switch fluorescence ratio was found to be 1.41.

As for TACACGGCAA, the switch fluorescence ratio was 0.839.

Consider GGGTGTACAT, for which the switch fluorescence ratio was determined as 0.994.

As to CAGGGTAAGG, the switch fluorescence ratio came to 0.981.

For the sequence GGTTCATGCA, the switch fluorescence ratio was 0.985.

As for TTTTACACAG, the switch fluorescence ratio came out at 0.963.

Consider TTTAATCTTT, for which the switch fluorescence ratio came to 1.01.

On to TAACATCGGG, for which the switch fluorescence ratio worked out at 1.05.

For the sequence TTTAACATTG, the switch fluorescence ratio came out at 1.01.

On to TAGTACGCA, for which the switch fluorescence ratio is 1.23.

As for GTCGGTACGT, the switch fluorescence ratio was determined as 0.992.

In the case of ACTATAGGGA, the switch fluorescence ratio stood at 1.03.

Regarding TGGTTCCCCG, the switch fluorescence ratio worked out at 1.07.

For CTAAGTAGTG, the switch fluorescence ratio came to 0.971.

For TTTATACAG, the switch fluorescence ratio was determined as 1.

GCCTATTTAA: the switch fluorescence ratio was 0.994.

As for GAGCATGCCA, the switch fluorescence ratio turned out to be 0.984.

With GAGAGTGCGT, the switch fluorescence ratio came out at 1.01.

Consider CTAGAATTCG, for which the switch fluorescence ratio was found to be 0.993.

GGGACAAAT: the switch fluorescence ratio came to 1.

In the case of GGGGGTCCAC, the switch fluorescence ratio turned out to be 0.981.

For the sequence TAATTCGTGA, the switch fluorescence ratio amounted to 1.01.

For the sequence TGGCGGCTAG, the switch fluorescence ratio stood at 1.02.

Regarding TTGGACCACT, the switch fluorescence ratio came out at 1.01.

AATGGTGTCA: the switch fluorescence ratio was determined as 0.988.

With AGCAAGGTTT, the switch fluorescence ratio turned out to be 1.05.

For the sequence TCCACAAATT, the switch fluorescence ratio was 1.01.

Turning to ATAGCCATTG, the switch fluorescence ratio is 1.

Take TTATAGATTT: the switch fluorescence ratio worked out at 1.02.

Consider TGGGTATACT, for which the switch fluorescence ratio came out at 1.02.

As for CGTAGCTCAC, the switch fluorescence ratio was found to be 6.92.

With CAGTAAGGTT, the switch fluorescence ratio came out at 0.969.

Regarding GCTTGGTACG, the switch fluorescence ratio came to 0.991.

For the origin of these results see the supplement of paper PMC10126150.
